# Measured values published in the supplement of paper PMC10126150.
# Sequences with one replicate were seen in a single cluster, so their values are uncertain.
# Test system: ATP
# Assay: switch fluorescence ratio, 500 uM ATP over buffer (Cy3 cluster intensity, sum of 5 cycles each) (fold (ratio)); higher = stronger signal-on switching upon ATP binding; sequences stand for … in TCGTCGGCAGCGTCAGATGTGTATAAGAGACAGTTTTTTTTTTTTTTTTTTTTTTTTT…TC
# Settings: aptamer strand: ATP DNA aptamer (quencher-CACCTGGGGGAGTATTGCGGAGGAAGG + anchor), 100 nM annealed; ATP concentration: 500 uM; one replicate
# Outline: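 Cy3-labelled switching-strand clusters on a modified Illumina MiSeq flow-cell were annealed to 100 nM quencher-labelled ATP aptamer and imaged first in selection buffer, then after 15 min with 500 uM ATP at 22 °C. NaOH stripping and re-annealing separated each of five buffer/ATP cycles, and clusters outside 100-1000 RFU were excluded. The fluorescence ratio sums target-cycle Cy3 intensity over buffer-cycle Cy3 intensity per cluster and averages it per switch-domain sequence.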
# 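Also: ATP exposure 15 min at 22 °C before imaging.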
row,Sequence,switch fluorescence ratio
1,AACGCGGGTG,1.06
2,AACGCGGTCT,1.01
3,AACGCGTATC,1.04
4,AACGCTGAGC,1.08
5,AACGGAGGCG,1.01
6,AACGGCCCTC,1.07
7,AACGGTAGCG,0.996
8,AACGGTGTGG,1
9,AACGTAAGTT,1
10,AACGTAATCA,1.11
11,AACGTACACG,1.22
12,AACGTATGAG,0.982
13,AACGTCGCTA,1.02
14,AACGTGACAT,1.22
15,AACGTTA,1.03
16,AACGTTCCAA,1.11
17,AACGTTCGAA,0.959
18,AACGTTGTCG,1.04
19,AACGTTTAAC,1.17
20,AACGTTTACG,0.988
21,AACGTTTTAC,1.12
22,AACTAAACAT,1.03
23,AACTAAAGGG,1.11
24,AACTACTCAC,1.25
25,AACTAGATGT,1.01
26,AACTAGCT,0.997

row,Sequence,switch fluorescence ratio
1,AACTAGGTGG,1.04
2,AACTAGGTTA,0.992
3,AACTATATTG,1.02
4,AACTATCTAA,1
5,AACTATGCG,0.978
6,AACTATTAGC,0.976
7,AACTATTTGG,1.01
8,AACTCCCTTA,1.1
9,AACTCGCCAA,1.09
10,AACTCGGGT,1
11,AACTGACAAG,0.963
12,AACTGAGAAA,0.971
13,AACTGAGGAA,1.04
14,AACTGCCTCA,1.06
15,AACTGCTTGG,1.01
16,AACTGGAG,1.04
17,AACTGGCCGT,1.03
18,AACTGGGGAG,1.04
19,AACTGGGTTG,0.978
20,AACTGGTGGT,0.972
21,AACTGTAGGT,1.02
22,AACTGTCGCC,1.02
23,AACTTCTGAC,1.44
24,AACTTGCATT,0.987
25,AACTTGCTGT,1.02
26,AACTTGTGCC,0.99

row,Sequence,switch fluorescence ratio
1,AACTTTCATT,1.04
2,AACTTTTAT,1.02
3,AAGAAAACAG,0.98
4,AAGAAAACTA,1.02
5,AAGAAAGGAG,1.04
6,AAGAAAGTAT,0.941
7,AAGAACAAGA,1.01
8,AAGAACACGC,1.18
9,AAGAACGTTT,0.977
10,AAGAATCCGT,1.04
11,AAGAATCGTG,1
12,AAGAATGGTT,0.969
13,AAGAATGTCA,1.01
14,AAGACACAAC,1.09
15,AAGACACACT,1.36
16,AAGACATGTG,1
17,AAGACGCTGG,1.01
18,AAGACGTTGG,1.02
19,AAGACTACAG,0.991
20,AAGACTGTCT,0.978
21,AAGAGAAATG,0.975
22,AAGAGAACCT,1.98
23,AAGAGAATAA,1.09
24,AAGAGAGAAA,0.998
25,AAGAGCAGCT,0.986
26,AAGAGCTACA,1.01

row,Sequence,switch fluorescence ratio
1,AAGAGGATTG,0.973
2,AAGAGGCGAG,1.01
3,AAGAGGGAA,0.987
4,AAGAGGTTCG,0.985
5,AAGAGTAAG,0.991
6,AAGAGTCACG,1.01
7,AAGAGTTTCA,1
8,AAGATATTAG,0.983
9,AAGATCCCCG,0.988
10,AAGATTCGGA,0.892
11,AAGATTGGCA,0.966
12,AAGATTTGCA,0.994
13,AAGATTTGGC,1.14
14,AAGCAACTAG,1.62
15,AAGCAAGGAT,1.56
16,AAGCACGCAC,1.89
17,AAGCAGCCTT,1.06
18,AAGCATACGG,1.33
19,AAGCCACCTT,1.1
20,AAGCCAGGA,1.03
21,AAGCCATGAG,1.02
22,AAGCCCCTG,0.957
23,AAGCCCGACT,1.02
24,AAGCCCGGGT,1.1
25,AAGCCTAGGA,1.02
26,AAGCCTGGA,1.06

row,Sequence,switch fluorescence ratio
1,AAGCGAAAAG,1.02
2,AAGCGAAGGG,1.06
3,AAGCGAGGGA,1.06
4,AAGCGAGTCG,0.998
5,AAGCGGTTGC,1.02
6,AAGCTCATGG,0.967
7,AAGCTCGATG,1.02
8,AAGCTCTTAC,1.19
9,AAGCTGGGGT,1
10,AAGCTGGGT,0.99
11,AAGCTGTATT,0.994
12,AAGCTTCAAC,1.07
13,AAGCTTCACG,1.05
14,AAGCTTGCTT,0.996
15,AAGCTTTA,1.02
16,AAGCTTTGCC,0.962
17,AAGGAAATCG,0.981
18,AAGGAAATGC,1.5
19,AAGGACCAAG,1.03
20,AAGGACTTG,1.01
21,AAGGAGCGGT,0.966
22,AAGGAGGAAT,1.47
23,AAGGAGTTAC,1.02
24,AAGGATCAG,0.983
25,AAGGATGGA,0.982
26,AAGGCAGCCG,1.07

row,Sequence,switch fluorescence ratio
1,AAGGCAGCTA,1.01
2,AAGGCCCCGG,1.02
3,AAGGCCGAGT,0.979
4,AAGGCCTCGT,0.97
5,AAGGCGCCTG,1.02
6,AAGGCGTTGT,0.988
7,AAGGCTCAGT,1
8,AAGGCTCCGC,1.4
9,AAGGGAATCT,1.06
10,AAGGGACAGA,0.97
11,AAGGGATAAT,0.96
12,AAGGGATAGA,0.996
13,AAGGGATGTT,1
14,AAGGGCGTTG,0.999
15,AAGGGGGAAA,0.988
16,AAGGGGTACG,1.03
17,AAGGGTGACA,1.04
18,AAGGTACGG,1.03
19,AAGGTATAA,1.02
20,AAGGTCAGGG,1.06
21,AAGGTGAGTG,0.99
22,AAGGTGGGA,1.02
23,AAGGTGGGCG,1
24,AAGGTGTAGG,1.06
25,AAGGTGTG,0.994
26,AAGGTTCGGA,1.01

row,Sequence,switch fluorescence ratio
1,AAGGTTTAC,0.991
2,AAGTACATT,1.27
3,AAGTACTTCG,1.2
4,AAGTAGGCTT,1.01
5,AAGTAGGTCA,1.28
6,AAGTAGTAC,1.1
7,AAGTAGTACG,0.911
8,AAGTATCAGA,1
9,AAGTCACCGC,1.14
10,AAGTCAGAAA,1.02
11,AAGTCAGCTA,1.01
12,AAGTCATGA,1.01
13,AAGTCGAGAA,1.01
14,AAGTCGGCCG,1
15,AAGTCTTAC,1.23
16,AAGTGAAGGT,1
17,AAGTGACTCG,1.08
18,AAGTGCACGA,0.956
19,AAGTGCAGGC,1.03
20,AAGTGTAGGC,1.01
21,AAGTGTAGGT,0.977
22,AAGTGTATTC,0.939
23,AAGTGTGAGT,0.99
24,AAGTGTGCTA,0.989
25,AAGTTACGGT,1.14
26,AAGTTATATC,1.02

row,Sequence,switch fluorescence ratio
1,AAGTTATGCA,0.989
2,AAGTTATTAG,0.981
3,AAGTTGCCCC,1
4,AAGTTGCTGA,0.989
5,AAGTTGGAT,1
6,AAGTTGTTTT,1.02
7,AAGTTTGATC,1.01
8,AAGTTTGTAC,1.01
9,AATAACCTA,1.07
10,AATAAGAACC,1.06
11,AATAAGTC,0.989
12,AATAATAAG,0.971
13,AATAATGAAC,1.03
14,AATAATTCGT,1.03
15,AATACCTGTT,0.971
16,AATACGTGCA,1.04
17,AATACTGTTT,1.03
18,AATAGAGCGT,0.993
19,AATAGCGTTA,1.09
